# Data published in PubChem BioAssay AID485364 (National Center for Advancing Translational Sciences (NCATS), 2010).
# The whole screen tested about 360,000 compounds, of which about 11,000 (3.1%) were called active. The inconclusive results got no clear call from the source; some entries with a clear call stand among them for comparison. The call rests on the fitted dose curve; in most records, active means well fitted inhibition curve with a large enough effect; inconclusive means small, poorly fitted or top-dose-only effect; inactive means no such curve, though single readings can be large or run the other way. No potency is given beside an inconclusive call; the fits are too rough.
# Target: Schistosoma mansoni thioredoxin glutathione reductase (TGR) (UniProt Q962Y6)
# Test: qHTS Assay for the Inhibitors of Schistosoma Mansoni Peroxiredoxins; further: nearly all actives have a fitted effect of over 60% in size
# Conditions: purified TGR, DTNB reduction, TNB absorbance 405 nm; series mostly up to 114 µM
# Procedure, shortened: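 First, TGR (20 nM dispensed) and NADPH were mixed with compound. Second, a 15 min room-temperature incubation followed. Third, further NADPH and then DTNB were added to start the reaction. Finally, TNB absorbance was monitored kinetically.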
# Potency means the concentration at half of the fitted maximal effect; tags describe the fitted curve by direction and shape.
row,Compound,Potency
1,COC(=O)Cn1cc(C=C2C(=O)NC(=O)NC2=O)c2ccccc21,"inconclusive [inhibitor, partial curve]"
2,COc1cc(/C=N/NC(=O)c2cccnc2)ccc1OC(=O)c1cccc(Br)c1,"inconclusive [inhibitor, partial curve]"
3,CC(=O)Nc1ccc(NC(=S)NC(=O)c2ccc([N+](=O)[O-])cc2)cc1,"inconclusive [inhibitor, full curve]"
4,CC(=O)Nc1ccc2c(CSc3nncs3)cc(=O)oc2c1,inactive
5,Cc1ccc(C(=O)Oc2ccc(C(=O)COC(=O)C3CC(=O)N(Cc4ccco4)C3)cc2)cc1 (centres undefined),"inconclusive [inhibitor, partial curve]"
6,O=C(c1cc2nc(-c3ccco3)cc(C(F)(F)F)n2n1)N1CCc2ccccc2C1,active: 50.1 µM
7,O=C1c2ccccc2NC(c2ccc(O)cc2)N1Cc1ccco1 (centres undefined),"inconclusive [inhibitor, partial curve, poor fit]"
8,Cc1ccc(SC(=O)c2c(C)noc2-c2cc(C)on2)cc1,active: 7.94 µM
9,CCC(C)NS(=O)(=O)c1ccc(N2CCCCS2(=O)=O)cc1 (centres undefined),inactive
10,CCOC(=O)C1CCN(C(=O)c2nn(-c3ccc(C)cc3)c(=O)c3c2c2ccccc2n3C)CC1,"inconclusive [inhibitor, single point]"
11,CCCNc1nc2nc3ccccn3c(=O)c2cc1C(=O)NCCN1CCOCC1,inactive
12,CN1CCN(CC#CC(C)(O)C2CC3C=CC2C3)CC1 (centres undefined),"inconclusive [inhibitor, full curve]"
13,Cc1ccc(C(=O)N2CCCC(Nc3ccc(F)cc3)C2)cc1C (centres undefined),active: 79.4 µM
14,COc1ccc(NC(=O)c2c(NCc3cccs3)sc3c2CCCCC3)cc1,active: 17.8 µM
15,COCCCn1c(SCC(=O)NCc2ccco2)nc2sc3c(c2c1=O)CCC3,active: 39.8 µM
16,CCC1Nc2ncnc(N3CCN(c4ccccn4)CC3)c2N(Cc2ccc(Cl)cc2)C1=O (centres undefined),"inconclusive [inhibitor, full curve, poor fit]"
17,Cc1cc(N)n(-c2ccc(S(=O)(=O)N3CCOCC3)cc2[N+](=O)[O-])n1,"inconclusive [inhibitor, partial curve]"
18,CC(=O)Nc1nnc(-c2c(-c3c(Cl)cccc3Cl)noc2C)o1,inactive
19,Cc1cc(C)cc(NC(=O)CSc2nnc(Cc3cccn3C)n2-c2ccc(F)cc2)c1,"inconclusive [inhibitor, partial curve]"
20,O=C(/C=C/c1ccco1)Nc1ccccc1C(=O)O,active: 17.8 µM
21,COc1ccc2c(CN3CC=C(c4ccccc4)CC3)cc(=O)oc2c1,"inconclusive [inhibitor, full curve, poor fit]"
22,CN1C2=CC=CC=CC2=[N+](C)C12C([N+](=O)[O-])=CC(=[N+]([O-])[O-])C=C2[N+](=O)[O-] (centres undefined),"inconclusive [inhibitor, partial curve]"

row,Compound,Potency
1,O=C1CC(=O)N(c2cccc(Br)c2)C(=O)N1,"inconclusive [inhibitor, full curve, poor fit]"
2,CN(C)c1ccc(-c2nc3ccccc3n2C)cc1,"inconclusive [inhibitor, partial curve]"
3,O=C(Cc1csc2ccccc12)NCc1ccc(F)cc1,inactive
4,CCN(CC)Cc1oc(CO)cc(=O)c1O,"inconclusive [inhibitor, full curve, poor fit]"
5,O=C1NC(=O)N(Cc2ccc(F)cc2)C(=O)/C1=C/c1cccs1,"inconclusive [inhibitor, full curve]"
6,CCCCc1ccc(-c2nc(N)n[nH]2)cc1,"inconclusive [inhibitor, full curve, poor fit]"
7,S=C(Nc1ccc(Oc2ccccc2)cc1)Nc1cccnc1,"inconclusive [inhibitor, full curve]"
8,CC(C)c1ccc(NC2CCCN(C(=O)CCc3cn[nH]c3)C2)cc1 (centres undefined),"inconclusive [inhibitor, full curve, poor fit]"
9,Cc1ccc(S(=O)(=O)CNC(=O)c2ccccc2)cc1,active: 20 µM
10,Cc1[nH]c2ccccc2c1C(=O)CSC(=S)N1CCOCC1,"inconclusive [inhibitor, partial curve]"
11,CCOc1ccc(/C=N/N2CCN(Cc3ccccc3)CC2)cc1,"inconclusive [inhibitor, single point]"
12,FC(F)(F)c1ccc(N2CCN(Cc3ccc4c(c3)OCO4)CC2)nc1,inactive
13,O=C(NCCc1ccc(Cl)cc1)C(=O)NCC(c1ccco1)S(=O)(=O)c1ccccc1 (centres undefined),"inconclusive [inhibitor, partial curve]"
14,O=C(NCc1ccco1)c1ccc2c(=O)n(Cc3ccco3)c(SCC(=O)N3CCCC3)nc2c1,"inconclusive [inhibitor, partial curve]"
15,CCCCCCCCCCCCCCCC[n+]1cccc2ccccc21,"inconclusive [inhibitor, single point]"
16,c1ccc(CSc2nnc(-c3ccco3)c(-c3ccco3)n2)cc1,active: 2.82 µM
17,COC(=O)c1ccc(NS(=O)(=O)c2ccc(Cl)cc2)o1,"inconclusive [inhibitor, partial curve]"
18,O=c1c(C(c2ccc(Cl)cc2)c2c(O)nc3n(c2=O)CCCS3)c(O)nc2n1CCCS2,active: 1.78 µM
19,CCOCCCNC(=O)/C(C#N)=C/c1ccc(Cl)c([N+](=O)[O-])c1,"inconclusive [inhibitor, full curve, poor fit]"
20,CCCC1Cc2c(sc3ncnc(N)c23)CO1 (centres undefined),"inconclusive [inhibitor, full curve, poor fit]"
21,COc1ccc(N2CCC(CNC(=O)Nc3ccc(C)c(C)c3)C2)cc1 (centres undefined),"inconclusive [inhibitor, partial curve]"
22,Cc1[nH]c(C(=O)O)c(C#N)c1C(=O)c1ccccc1,"inconclusive [inhibitor, partial curve]"
